# Measurements taken from patent US11571410B2, “Use of carbamate compounds for prevention, alleviation or treatment of bipolar disorder” (SK BIOPHARMACEUTICALS CO., LTD., priority 2016, dated 2023).
# What was measured:
# normal mice = assay: Open field test in normal mice; assay type: in vivo, ICR mice; settings: single oral dose, test compound 5, 10 and 20 mg/kg, valproic acid 300 mg/kg, open field test for 30 minutes after 1 hour
# [1] = system: bipolar mania-induced mice; assay: Open field test in Amphetamine/Chlordiazepoxide-induced bipolar mania mouse model; settings: mania-induced mice (Amphetamine 2.5 mg/kg + Chlordiazepoxide 2.5 mg/kg i.p. 30 minutes after oral dose); test compound 5, 10 and 20 mg/kg, valproic acid 300 mg/kg; open field test for 30 minutes; one-way ANOVA p<0.05
structure (smiles),measurement,setting,value
"CCCC(CCC)C(=O)O [valproic acid, reference compound]",behavior in open field test compared with the vehicle-administered negative control group,normal mice,did not significantly decrease
same,behavior in open field test versus vehicle-treated negative control group (inhibition of increased behavior),[1],confirmed the efficacy
